The whole screen tested about 390,000 compounds, of which about 17,000 (4.4%) were called active. The inconclusive results got no clear call from the source; some entries with a clear call stand among them for comparison. The call rests on the fitted dose curve; in most records, active means well fitted inhibition curve with a large enough effect; inconclusive means small, poorly fitted or top-dose-only effect; inactive means no such curve, though single readings can be large or run the other way. Where the call is inconclusive, the potency comes from a doubtful curve fit.
Target: Lysine-specific demethylase 4A (Homo sapiens) (UniProt O75164)
Chain of UniProt O75164 (O75164 whole entry, looked up, the tested form may be a part): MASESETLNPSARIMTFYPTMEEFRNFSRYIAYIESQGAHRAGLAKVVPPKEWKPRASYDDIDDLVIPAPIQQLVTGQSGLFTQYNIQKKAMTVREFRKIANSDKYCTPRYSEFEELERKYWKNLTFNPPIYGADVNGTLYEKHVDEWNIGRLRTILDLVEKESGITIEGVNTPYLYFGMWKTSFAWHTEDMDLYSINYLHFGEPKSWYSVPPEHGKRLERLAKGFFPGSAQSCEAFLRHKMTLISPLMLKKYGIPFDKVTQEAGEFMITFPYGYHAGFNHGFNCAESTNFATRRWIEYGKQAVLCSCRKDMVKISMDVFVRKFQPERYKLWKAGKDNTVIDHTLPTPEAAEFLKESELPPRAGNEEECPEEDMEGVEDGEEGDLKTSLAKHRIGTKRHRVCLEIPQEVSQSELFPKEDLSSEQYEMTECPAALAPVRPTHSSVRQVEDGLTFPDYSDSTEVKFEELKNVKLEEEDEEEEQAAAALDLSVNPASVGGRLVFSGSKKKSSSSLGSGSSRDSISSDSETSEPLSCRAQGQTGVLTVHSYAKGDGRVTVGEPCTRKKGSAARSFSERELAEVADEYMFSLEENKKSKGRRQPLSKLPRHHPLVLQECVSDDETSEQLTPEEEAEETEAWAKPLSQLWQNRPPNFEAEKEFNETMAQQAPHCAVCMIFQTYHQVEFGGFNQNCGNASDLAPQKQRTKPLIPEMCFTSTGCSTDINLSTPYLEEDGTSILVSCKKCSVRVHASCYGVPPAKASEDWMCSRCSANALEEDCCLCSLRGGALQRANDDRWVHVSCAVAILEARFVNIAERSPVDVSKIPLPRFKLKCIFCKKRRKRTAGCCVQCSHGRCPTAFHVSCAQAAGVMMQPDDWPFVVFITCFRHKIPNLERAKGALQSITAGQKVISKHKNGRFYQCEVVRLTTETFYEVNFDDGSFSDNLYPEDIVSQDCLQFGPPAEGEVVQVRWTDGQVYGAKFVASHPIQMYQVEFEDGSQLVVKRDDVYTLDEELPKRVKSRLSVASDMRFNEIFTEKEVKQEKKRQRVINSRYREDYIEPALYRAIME
Test: qHTS Assay for Inhibitors of JMJD2A-Tudor Domain; further: nearly all actives have a fitted effect of over 50% in size
Details: AlphaScreen JMJD2A-Tudor / H3K4me3 peptide binding; activity change, negative = inhibition: at 114 µM (top of the series)
On the % scale 0 is the no-effect control and ±100 the full control effect; potency means the concentration at half of the fitted maximal effect; tags describe the fitted curve by direction and shape.

**Q.** How did the Potency turn out when Cc1ccc(N=Nc2c(=O)[nH]n3c(C)cc(C)nc23)cc1 was run?
**A.** inconclusive: 44.7 µM [inhibitor, partial curve]

**Q.** With O=C(NCC(c1ccccc1)c1ccccc1)c1nn(-c2ccccc2F)nc1CO as the compound, how does the “activity change, negative = inhibition” value read?
**A.** inactive: -20.1%

**Q.** CC(C)CCn1c(O)c(N=NC(=O)c2ccco2)c2ccccc21 was tested. Which Potency did it give?
**A.** inconclusive: 50.1 µM [inhibitor, partial curve]

**Q.** Which Potency does the source give for Oc1c(CN2CCN(c3ccccn3)CC2)cc(Cl)c2cccnc12 here?
**A.** active: 31.6 µM

**Q.** CCOc1ccc(N=Cc2c(C)[nH]n(-c3nc4ccccc4[nH]3)c2=O)cc1 was tested. Which Potency did it give?
**A.** inconclusive: 89.1 µM [inhibitor, single point]

**Q.** How did the Potency turn out when C=CC(=O)Nc1ccc(Nc2nc(NC3CCC(N(C)C)CC3)nc3c2ncn3C(C)C)cc1 (configuration not stated) was run?
**A.** inconclusive: 56.2 µM [inhibitor, partial curve]

**Q.** Which Potency does the source give for CCOC(=O)c1nnc2c(-c3ccc(Cl)cc3)c(C)nn2c1C here?
**A.** inconclusive: 63.1 µM [inhibitor, partial curve, poor fit]

**Q.** Which “activity change, negative = inhibition” value does the source give for O=C(NC1CCN(Cc2ccccc2)CC1)c1ccccc1Cl here?
**A.** inactive: -12.3%

**Q.** With O=C(NCc1ccc(F)cc1)C(Cc1ccccc1)n1cccc1 (configuration not stated) as the compound, how does the Potency read?
**A.** inconclusive: 112 µM [inhibitor, partial curve, poor fit]

**Q.** How did the “activity change, negative = inhibition” value turn out when NC(=O)NC(=O)COC(=O)c1cccc(NS(=O)(=O)/C=C/c2ccccc2)c1 was run?
**A.** inactive: -4.83%

**Q.** For Cn1nc(C(=O)OCC(=O)Nc2ccc(S(N)(=O)=O)cc2)c2ccccc2c1=O, which “activity change, negative = inhibition” value is on record?
**A.** inactive: -8.78%

**Q.** With Cc1cc(-c2csc(N)n2)c(C)n1CCc1ccccc1 as the compound, how does the Potency read?
**A.** active: 44.7 µM

**Q.** How did the Potency turn out when Cc1cc2ccccc2nc1SCC(=O)NC1CCCC1 was run?
**A.** active: 14.1 µM

**Q.** With COc1cccc(C2Nc3cccc4cccc(c34)N2)c1 as the compound, how does the Potency read?
**A.** inconclusive: 8.91 µM [inhibitor, single point]

**Q.** For O=C(COc1ccc(C(=S)N2CCC(Cc3ccccc3)CC2)cc1)N1CCOCC1, which Potency is on record?
**A.** inconclusive: 56.2 µM [inhibitor, partial curve]

**Q.** How did the Potency turn out when O=S1(=O)N=C(N/N=C/C=C/c2ccccc2)c2ccccc21 was run?
**A.** inconclusive: 63.1 µM [inhibitor, single point]

**Q.** Oc1ccccc1-n1c(-c2ccccc2)ccc1-c1ccccc1 was tested. Which Potency did it give?
**A.** inconclusive: 39.8 µM [inhibitor, partial curve]

**Q.** Which “activity change, negative = inhibition” value does the source give for CCOc1ccc(Cn2cc(F)c(=O)[nH]c2=O)cc1 here?
**A.** inactive: -24.3%

**Q.** For Cc1ccc(N2C(=O)CC(Sc3ncn[nH]3)C2=O)cc1 (configuration not stated), which Potency is on record?
**A.** active: 28.2 µM

**Q.** Which Potency does the source give for C=CCN1CCc2c(cc(O)c(O)c2Br)[C@@H](c2ccccc2)C1 here?
**A.** inconclusive: 56.2 µM [inhibitor, partial curve]

**Q.** CCOC(=O)c1c(N)sc(=S)c2c1CCC2 was tested. Which Potency did it give?
**A.** inconclusive: 56.2 µM [inhibitor, partial curve]

**Q.** How did the Potency turn out when Cn1c(COc2ccccc2)nnc1SCC(=O)Nc1nnc(C2CC2)s1 was run?
**A.** inconclusive: 15.8 µM [inhibitor, full curve, poor fit]

**Q.** COc1cc(NC(=O)c2c(C)oc3ncnc(N4CCCCC4)c23)cc(OC)c1 was tested. Which “activity change, negative = inhibition” value did it give?
**A.** inactive: -15.5%

**Q.** For NS(=O)(=O)c1ccc2c(c1)C1C=CCC1C(C1CC=CCC1)N2 (configuration not stated), which Potency is on record?
**A.** inconclusive: 25.1 µM [inhibitor, full curve]

**Q.** Which Potency does the source give for Cc1ccc(OCC(=O)NCc2ccc3c(c2)OCO3)c([N+](=O)[O-])n1 here?
**A.** inconclusive: 15.8 µM [inhibitor, full curve, poor fit]

**Q.** How did the Potency turn out when O=C(CCc1ccccn1)N1CCCC(Nc2cccc(F)c2)C1 (configuration not stated) was run?
**A.** active: 7.08 µM

**Q.** With CCSc1c([N+](=O)[O-])c(=O)n(-c2ccccc2)c2ccccc12 as the compound, how does the Potency read?
**A.** inconclusive: 28.2 µM [inhibitor, full curve]

**Q.** For CN(C)CCCNCCNC(=O)/C=N\O, which Potency is on record?
**A.** inconclusive: 89.1 µM [inhibitor, single point]

**Q.** For COc1ccc(CCNCC2C(Oc3ccc(Cl)cc3)C(=O)N2c2ccccc2C)cc1OC (configuration not stated), which Potency is on record?
**A.** inconclusive: 63.1 µM [inhibitor, single point]

**Q.** How did the Potency turn out when C/C=C\C=C/C(=O)Nc1cccc(C2=NOC3(C2)C[C@@H](C(N)=O)N(C(=O)C2(C)CC2)C3)c1 (some centres not stated) was run?
**A.** inconclusive: 44.7 µM [inhibitor, partial curve, poor fit]

**Q.** For CCOc1cccc2sc(N(CCN(CC)CC)C(=O)c3ccco3)nc12, which Potency is on record?
**A.** inconclusive: 89.1 µM [inhibitor, single point]

**Q.** With COCCn1nnnc1C(c1ccc(OC)cc1)N1CCN(C(=O)c2ccco2)CC1 (configuration not stated) as the compound, how does the “activity change, negative = inhibition” value read?
**A.** inactive: -15.4%

**Q.** How did the Potency turn out when COc1cccc(N(CC(=O)NC2CCCCC2)C(=O)CCC(=O)Nc2nc(C)cs2)c1 was run?
**A.** inconclusive: 0.708 µM [inhibitor, full curve]

**Q.** Which Potency does the source give for CNc1nc(-c2ccc3c(c2)CCN3C(=O)c2cccc(F)c2)cs1 here?
**A.** inconclusive: 56.2 µM [inhibitor, partial curve]

**Q.** For COc1ccc(N(C(=O)c2ccncc2)S(=O)(=O)c2cccc([N+](=O)[O-])c2)cc1, which Potency is on record?
**A.** inconclusive: 56.2 µM [inhibitor, partial curve, poor fit]

**Q.** O=C(COc1cccc2ccccc12)N1CCN(c2ccccc2)CC1 was tested. Which Potency did it give?
**A.** inconclusive: 56.2 µM [inhibitor, partial curve]

**Q.** Which Potency does the source give for CC1(C)CC(=O)CC2(C1)NCC(c1ccccc1)c1c2[nH]c2ccccc12 (configuration not stated) here?
**A.** inconclusive: 50.1 µM [inhibitor, partial curve]

**Q.** With O=C(c1ccc(CS(=O)c2ccccc2Cl)o1)N1CCN(c2cccc(Cl)c2)CC1 (configuration not stated) as the compound, how does the Potency read?
**A.** inconclusive: 50.1 µM [inhibitor, partial curve]

**Q.** With COc1c(-c2ccc(O)c(O)c2)oc2cc(O)cc(O)c2c1=O as the compound, how does the Potency read?
**A.** inconclusive: 56.2 µM [inhibitor, partial curve]

**Q.** How did the Potency turn out when COc1ccc(C(CNC(=O)c2cccc(N(C)C)c2)N2CCCC2)cc1 (configuration not stated) was run?
**A.** active: 44.7 µM

**Q.** How did the Potency turn out when COc1ccc2c(c1)nc(SCC(=O)c1cccs1)n2C was run?
**A.** active: 79.4 µM

**Q.** With CN(O)/C=c1/ccc2c(n1)C(=O)C=CC=2 as the compound, how does the Potency read?
**A.** active: 20 µM

**Q.** With COc1ccc(/C=C2/SC(=S)N(CC(=O)O)C2=O)cc1OCc1ccc(Cl)cc1 as the compound, how does the Potency read?
**A.** inconclusive: 56.2 µM [inhibitor, partial curve]

**Q.** How did the Potency turn out when COc1ccccc1N1CCN(C(=O)c2cc3ccc4ccc(C)[nH]c4c3n2)CC1 was run?
**A.** inconclusive: 35.5 µM [inhibitor, partial curve]

**Q.** For CCC(C)NC(=O)c1nc2c(nnn2Cc2ccccc2Cl)c(=O)[nH]1 (configuration not stated), which Potency is on record?
**A.** inconclusive: 39.8 µM [inhibitor, single point]

**Q.** For O=C(CN1N=C(c2ccc(Cl)cc2)CCC1=O)NCCN1CCc2ccccc2C1, which “activity change, negative = inhibition” value is on record?
**A.** inactive: 2.97%

**Q.** Which Potency does the source give for O=c1c2ccccc2nc(SCc2ccc(F)cc2Cl)n1CCCN1CCOCC1 here?
**A.** inconclusive: 63.1 µM [inhibitor, partial curve]

**Q.** Which Potency does the source give for CN(C)c1ccc(N2C(=NC(=O)c3ccccc3)SC3CS(=O)(=O)CC32)cc1 (configuration not stated) here?
**A.** inconclusive: 50.1 µM [inhibitor, partial curve]

**Q.** Which “activity change, negative = inhibition” value does the source give for CCOc1cccc(NC(=O)c2ccc(F)c(S(=O)(=O)N(CC)c3cccc(C)c3)c2)c1 here?
**A.** inactive: 4.89%

**Q.** How did the Potency turn out when Cc1ccc(NC(=O)COc2ccc(C(=O)NCCc3ccccc3)cc2)cc1 was run?
**A.** inconclusive: 2.82 µM [inhibitor, partial curve, poor fit]

**Q.** Which Potency does the source give for O=C(CSc1nc2[nH]c(=O)cc(O)c2s1)Nc1nncs1 here?
**A.** inconclusive: 15.8 µM [inhibitor, single point]

**Q.** How did the Potency turn out when COc1cccc(-c2cc(C(F)(F)F)n3ncc(C(=O)NCC4CCCO4)c3n2)c1 (configuration not stated) was run?
**A.** inconclusive: 89.1 µM [inhibitor, single point]

**Q.** With CC(C1CC2CCC1C2)n1c(-c2cccs2)n[nH]c1=S (configuration not stated) as the compound, how does the Potency read?
**A.** inconclusive: 35.5 µM [inhibitor, partial curve]

**Q.** For C/C(=N\NC(=O)C1CCCN(S(=O)(=O)c2ccccc2)C1)c1cccnc1 (configuration not stated), which Potency is on record?
**A.** inconclusive: 89.1 µM [inhibitor, single point]

**Q.** COc1nccnc1NS(=O)(=O)c1ccc(NS(=O)(=O)c2ccc(NC(C)=O)cc2)cc1 was tested. Which “activity change, negative = inhibition” value did it give?
**A.** inactive: -10.5%

**Q.** COc1ccc(N2CCN(C3C(=O)c4ccccc4N3C(C)=O)CC2)cc1 (configuration not stated) was tested. Which Potency did it give?
**A.** inconclusive: 50.1 µM [inhibitor, partial curve]

**Q.** Which Potency does the source give for CCOC(=O)c1cc(-c2ccc(OC)cc2)n(CCC(=O)NC2CCN(Cc3ccccc3)CC2)c1C here?
**A.** inconclusive: 63.1 µM [inhibitor, partial curve, poor fit]

**Q.** For CC(C)CC(c1nnnn1CC1CCCO1)N1CCN(Cc2ccc3c(c2)OCO3)CC1 (configuration not stated), which Potency is on record?
**A.** inconclusive: 50.1 µM [inhibitor, partial curve]

**Q.** Which Potency does the source give for Cc1cc(C#N)c(C)c(SCc2[nH]nc3c2C(c2ccccc2)C(C#N)=C(N)O3)n1 (configuration not stated) here?
**A.** inconclusive: 50.1 µM [inhibitor, partial curve]

**Q.** How did the “activity change, negative = inhibition” value turn out when COc1cccc(NC(=O)Cn2c(=O)n(CC(=O)NCCc3ccccc3)c(=O)c3sccc32)c1 was run?
**A.** inactive: -7.17%

**Q.** With Cc1cc(O)c(/C=N/OCc2ccc(Cl)cc2Cl)c(=O)o1 as the compound, how does the Potency read?
**A.** inconclusive: 44.7 µM [inhibitor, partial curve]

**Q.** For CCC/C(O)=C1\C(=O)CCCC1=NCCc1c(C)[nH]c2ccc(C)cc12, which Potency is on record?
**A.** inconclusive: 8.91 µM [inhibitor, full curve, poor fit]

**Q.** For CCN1C(=O)c2ccc(C(=O)Nc3ccc(O)cc3C)cc2C1=O, which “activity change, negative = inhibition” value is on record?
**A.** inactive: -5.3%

**Q.** Which Potency does the source give for COC(=O)c1[nH]c2ccccc2c1NC(=O)CN1CCCc2ccccc21 here?
**A.** inconclusive: 20 µM [inhibitor, partial curve, poor fit]

**Q.** Which Potency does the source give for COc1cc(C(=S)N2CCCC2)cc(OC)c1OS(=O)(=O)c1ccc(NC(C)=O)cc1 here?
**A.** inconclusive: 39.8 µM [inhibitor, partial curve]

**Q.** How did the “activity change, negative = inhibition” value turn out when COCCN1Cc2cccc(C(=O)Nc3ccc(Cl)cc3Cl)c2C1=O was run?
**A.** inactive: 15.3%

**Q.** CC(=O)c1cccc(NC(=O)Cn2cc3c(n2)CCCC3)c1 was tested. Which “activity change, negative = inhibition” value did it give?
**A.** inactive: -2.82%
